Cell count data for twelve compounds are collected here from the supplement of paper PMC4604168 (melanoma cell lines).

The structures appear in SMILES notation. Some of the results follow. Many values rest on one well or one pass, so single values are uncertain.
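Further: cells treated in 1,536-well plates, then fixed and DAPI-stained, with nuclei counted from automated high-throughput microscope images.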

In the assay the test system is A375. The assay is described as follows: cell count relative to DMSO control; melanoma cells; higher = more viable cells. Particulars: library dose: standard library concentration; 72 h.
Compound `CCCCCCCCc1ccc(CCC(N)(CO)CO)cc1` [fingolimod] + CN1CCN(c2ccc3nc(-c4c(N)c5c(F)cccc5[nH]c4=O)[nH]c3c2)CC1 [Dovitinib] (first compound 10 µM, partner dose 0.5 µM) returned a cell count of 21.4%. As for `CCCCCCCCc1ccc(CCC(N)(CO)CO)cc1` [fingolimod] + CC1(C)NC(=O)N(c2ccc([N+](=O)[O-])c(C(F)(F)F)c2)C1=O [nilutamide] (first compound 10 µM, partner dose 5 µM), the cell count was 88.4%. Turning to `Cc1ccc(NC(=O)c2cccc(N(C)C)c2)cc1NC(=O)c1ccc(O)cc1` + OCCn1cc(-c2cnc3nnn(Cc4ccc5ncccc5c4)c3n2)cn1 [PF04217903] (first compound 10 µM, partner dose 5 µM), the cell count was found to be 112%. The same measure for `NC(=O)c1ccc(N(C(N)=O)c2c(F)cccc2F)nc1-c1ccc(F)cc1F` + Nc1nc(F)nc2c1ncn2[C@@H]1O[C@H](CO)[C@@H](O)[C@@H]1O [fludarabine] (first compound 2 µM, partner dose 1 µM): 41.8%; for `NC(=O)c1ccc(N(C(N)=O)c2c(F)cccc2F)nc1-c1ccc(F)cc1F` + CC1(C)NC(=O)N(c2ccc([N+](=O)[O-])c(C(F)(F)F)c2)C1=O [nilutamide] (first compound 2 µM, partner dose 5 µM): 112%; for `NC(=O)c1ccc(N(C(N)=O)c2c(F)cccc2F)nc1-c1ccc(F)cc1F` + CNC(=O)c1cc(Oc2ccc(NC(=O)Nc3ccc(Cl)c(C(F)(F)F)c3)cc2)ccn1 [sorafenib] (first compound 2 µM, partner dose 2 µM): 88.4%. Compound `CCCCCCCCc1ccc(CCC(N)(CO)CO)cc1` [fingolimod] + CCCS(=O)(=O)Nc1ccc(F)c(C(=O)c2c[nH]c3ncc(Cl)cc23)c1F [PLX4720] (first compound 10 µM, partner dose 0.4 µM) showed a cell count of 71.1%. The compound `NC(=O)c1ccc(N(C(N)=O)c2c(F)cccc2F)nc1-c1ccc(F)cc1F` + Cn1nnc2c(C(N)=O)ncn2c1=O [temozolomide] (first compound 2 µM, partner dose 10 µM) yielded a cell count of 107%.

In turn, `NC(=O)c1ccc(N(C(N)=O)c2c(F)cccc2F)nc1-c1ccc(F)cc1F` + COc1ccc(C2=N[C@@H](c3ccc(Cl)cc3)[C@@H](c3ccc(Cl)cc3)N2C(=O)N2CCNC(=O)C2)c(OC(C)C)c1 [Nutlin-3] (first compound 2 µM, partner dose 0.5 µM) gave a cell count of 104%.

As to `CCCCCCCCc1ccc(CCC(N)(CO)CO)cc1` [fingolimod] + CC(=O)c1c(C)c2cnc(Nc3ccc(N4CCNCC4)cn3)nc2n(C2CCCC2)c1=O [palbociclib] (first compound 10 µM, partner dose 0.2 µM), the cell count is 64.4%. The same measure for `CCCCCCCCc1ccc(CCC(N)(CO)CO)cc1` [fingolimod] + NC1(c2ccc(-c3nc4ccn5c(=O)[nH]nc5c4cc3-c3ccccc3)cc2)CCC1 [MK2206] (first compound 10 µM, partner dose 2 µM): 30.6%. The same measure for `CN(NC(=O)CC(=O)NN(C)C(=S)c1ccccc1)C(=S)c1ccccc1` + c1cc(-c2cnn3cc(-c4ccc(OCCN5CCCCC5)cc4)cnc23)ccn1 [Dorsomorphin] (first compound 0.03 µM, partner dose 2 µM): 91.3%.
